# In a collection of fitness landscapes (doi:10.1126/science.1257360):
# The list shows a part of the results.
# B1: PhoQ; a variant is named by its letters at X, in order, P23837 (parent)
# chain: MKKLLRLFFPLSLRVRFLLATAAVVLVLSLAYGMVALIGYSVSFDKTTFRLLRGESNLFYTLAKWENNKLHVELPENIDKQSPTMTLIYDENGQLLWAQRDVPWLMKMIQPDWLKSNGFHEIEADVNDTSLLLSGDHSIQQQLQEVREDDDDAEMTHSVAVNVYPATSRMPKLTIVVVDTIPVELKSSYMVWSWFIYVLSANLLLVIPLLWVAAWWSLRPIEALAKEVRELEEHNRELLNPATTRELTSLVRNLNRLLKSERERYDKYRTTLTDLTHSLKTPLXXLQXXLRSLRSEKMSVSDAEPVMLEQISRISQQIGYYLHRASMRGGTLLSRELHPVAPLLDNLTSALNKVYQRKGVNISLDISPEISFVGEQNDFVEVMGNVLDNACKYCLEFVEISARQTDEHLYIVVEDDGPGIPLSKREVIFDRGQRVDTLRPGQGVGLAVAREITEQYEGKIVAGESMLGGARMEVIFGRQHSAPKDE
# Variants of: B1
# Experiment: enrichment ratio after two sorts for PhoP signalling (ratio (wild type AVST 3.29)); higher = more functional
# Conditions: with PhoP (E. coli)
row,Variant,enrichment ratio
1,PDAV,≤ 0.25
2,DSMY,≤ 0.25
3,ARVG,≤ 0.25
4,NDFW,≤ 0.25
5,RKNM,≤ 0.25
6,GHFN,≤ 0.25
7,RFRC,≤ 0.25
8,RGPI,≤ 0.25
9,KNNV,≤ 0.25
10,DYKF,≤ 0.25
11,EMTQ,≤ 0.25
12,ISPH,≤ 0.25
13,KRMD,≤ 0.25
14,TTSI,17.1
15,IMTV,≤ 0.25
16,GMHI,≤ 0.25
17,MWIQ,≤ 0.25
18,HTMM,3.76
19,HAPM,≤ 0.25
20,YCYW,≤ 0.25
21,RDRQ,≤ 0.25
22,SLTI,10.1
23,TPGT,≤ 0.25
24,WECK,≤ 0.25

row,Variant,enrichment ratio
1,LKNA,≤ 0.25
2,MMFQ,≤ 0.25
3,RSQI,≤ 0.25
4,YMQK,≤ 0.25
5,ARCT,2.13
6,GFHW,≤ 0.25
7,VRIQ,≤ 0.25
8,HLSM,≤ 0.25
9,FFWK,≤ 0.25
10,MMYV,≤ 0.25
11,GGVM,4.61
12,WTNI,≤ 0.25
13,DSRD,≤ 0.25
14,DKGY,≤ 0.25
15,MFEH,≤ 0.25
16,NWSY,≤ 0.25
17,KMFM,≤ 0.25
18,VHSD,≤ 0.25
19,APAW,≤ 0.25
20,KHTY,≤ 0.25
21,GHKQ,≤ 0.25
22,YWCM,≤ 0.25
23,VQGL,≤ 0.25
24,EGHN,≤ 0.25

row,Variant,enrichment ratio
1,NDFI,≤ 0.25
2,YHWE,≤ 0.25
3,TCEE,≤ 0.25
4,PDIF,≤ 0.25
5,WQWD,≤ 0.25
6,FWPF,≤ 0.25
7,HHNS,≤ 0.25
8,APIC,≤ 0.25
9,NQSP,≤ 0.25
10,GSFH,≤ 0.25
11,EYTL,≤ 0.25
12,FYMY,≤ 0.25
13,NSNP,≤ 0.25
14,DSTE,≤ 0.25
15,HMVQ,≤ 0.25
16,AQCT,20.8
17,SAPA,≤ 0.25
18,STAL,11.5
19,ACLE,1.64
20,HGHI,≤ 0.25
21,PGQM,≤ 0.25
22,VAWW,≤ 0.25
23,AQAW,≤ 0.25
24,LRDQ,≤ 0.25

row,Variant,enrichment ratio
1,VAFT,≤ 0.25
2,HQHG,≤ 0.25
3,GMEH,≤ 0.25
4,PAPS,≤ 0.25
5,WSHR,≤ 0.25
6,EGVM,≤ 0.25
7,TPTA,≤ 0.25
8,RRIK,≤ 0.25
9,ACTT,3.93
10,EVGA,≤ 0.25
11,LMLF,≤ 0.25
12,LRCN,≤ 0.25
13,VCAT,≤ 0.25
14,NPPM,≤ 0.25
15,NNER,≤ 0.25
16,TYWW,≤ 0.25
17,HDTS,≤ 0.25
18,FNGG,≤ 0.25
19,WIAK,≤ 0.25
20,VHDC,≤ 0.25
21,DTQK,≤ 0.25
22,IWVQ,≤ 0.25
23,ADHR,≤ 0.25
24,ADYN,≤ 0.25

row,Variant,enrichment ratio
1,WCWV,≤ 0.25
2,LYEY,≤ 0.25
3,RFPY,≤ 0.25
4,ITWV,≤ 0.25
5,FHPP,≤ 0.25
6,NMYW,≤ 0.25
7,MAIK,≤ 0.25
8,ENQN,≤ 0.25
9,WQNG,≤ 0.25
10,IRMW,≤ 0.25
11,RWAT,≤ 0.25
12,CFAN,≤ 0.25
13,MNQI,≤ 0.25
14,FPMG,≤ 0.25
15,HKVN,≤ 0.25
16,NRWH,≤ 0.25
17,MNFD,≤ 0.25
18,PHVD,≤ 0.25
19,AQDW,≤ 0.25
20,FFNE,≤ 0.25
21,PECD,≤ 0.25
22,ETDH,≤ 0.25
23,TSRC,≤ 0.25
24,RKPS,≤ 0.25

row,Variant,enrichment ratio
1,DAYT,≤ 0.25
2,PNYD,≤ 0.25
3,DIPV,≤ 0.25
4,VLYC,≤ 0.25
5,MSTT,0.617
6,DMFC,≤ 0.25
7,NKYQ,≤ 0.25
8,EDFN,≤ 0.25
9,IMTR,≤ 0.25
10,PECI,≤ 0.25
11,PLQI,≤ 0.25
12,FAGD,≤ 0.25
13,DCVP,≤ 0.25
14,GANL,≤ 0.25
15,WKIF,≤ 0.25
16,VNSY,≤ 0.25
17,RIIH,≤ 0.25
18,AKQY,≤ 0.25
19,VVPV,≤ 0.25
20,QIHC,≤ 0.25
21,NPGH,≤ 0.25
22,ELNF,≤ 0.25
23,QVAV,≤ 0.25
24,KSEG,≤ 0.25

row,Variant,enrichment ratio
1,LKRC,≤ 0.25
2,KRWG,≤ 0.25
3,GGCC,1.09
4,DKCN,≤ 0.25
5,DAQK,≤ 0.25
6,HNYQ,≤ 0.25
7,RGTQ,≤ 0.25
8,GLGF,≤ 0.25
9,WYLC,≤ 0.25
10,QFIK,≤ 0.25
11,VQLN,≤ 0.25
12,KVCP,≤ 0.25
13,ACPF,≤ 0.25
14,TTRH,≤ 0.25
15,YPLH,≤ 0.25
16,GHVT,≤ 0.25
17,PPFM,≤ 0.25
18,STYG,≤ 0.25
19,DASS,≤ 0.25
20,GWCF,≤ 0.25
21,AQHL,≤ 0.25
22,QWYK,≤ 0.25
23,FWSE,≤ 0.25
24,MRML,≤ 0.25

row,Variant,enrichment ratio
1,APDG,≤ 0.25
2,QLDW,≤ 0.25
3,VFKI,≤ 0.25
4,QACA,≤ 0.25
5,PQPP,≤ 0.25
6,HCKV,≤ 0.25
7,AMSH,4.9
8,HRQY,≤ 0.25
9,IFGG,≤ 0.25
10,WQTC,≤ 0.25
11,TPSA,≤ 0.25
12,RTIY,≤ 0.25
13,RPYS,≤ 0.25
14,NVFM,≤ 0.25
15,NEHS,≤ 0.25
16,SIDC,≤ 0.25
17,PRMY,≤ 0.25
18,DKWT,≤ 0.25
19,FAYK,≤ 0.25
20,DMPM,≤ 0.25
21,LTPL,≤ 0.25
22,TREF,≤ 0.25
23,EIFP,≤ 0.25
24,QILP,≤ 0.25

row,Variant,enrichment ratio
1,WYNW,2.3
2,TPNC,≤ 0.25
3,SIPP,≤ 0.25
4,KIGQ,≤ 0.25
5,VMLY,≤ 0.25
6,VYRY,≤ 0.25
7,QNCT,≤ 0.25
8,TLPV,≤ 0.25
9,NVPM,≤ 0.25
10,GKRW,≤ 0.25
11,INSV,≤ 0.25
12,ARIF,≤ 0.25
13,PAWG,≤ 0.25
14,HRFN,≤ 0.25
15,DRWK,≤ 0.25
16,CSFG,≤ 0.25
17,YEDL,≤ 0.25
18,HFSS,≤ 0.25
19,HRKW,≤ 0.25
20,QFCV,≤ 0.25
21,YSHT,≤ 0.25
22,LWIS,≤ 0.25
23,KMRI,≤ 0.25
24,QTTI,≤ 0.25

row,Variant,enrichment ratio
1,HKWT,≤ 0.25
2,IHAG,≤ 0.25
3,QNAR,≤ 0.25
4,TQLW,1.8
5,QTPA,≤ 0.25
6,SNCE,≤ 0.25
7,LQKY,≤ 0.25
8,FTMC,2.44
9,RYSL,≤ 0.25
10,WHHF,≤ 0.25
11,RSSL,≤ 0.25
12,GIFM,≤ 0.25
13,FEWK,≤ 0.25
14,NNHC,≤ 0.25
15,LYLP,≤ 0.25
16,RYRR,≤ 0.25
17,FHNN,≤ 0.25
18,DHVQ,≤ 0.25
19,AEGF,≤ 0.25
20,LAMW,≤ 0.25
21,FWRC,≤ 0.25
22,PVMQ,≤ 0.25
23,EQYP,≤ 0.25
24,AQIA,≤ 0.25

row,Variant,enrichment ratio
1,IANP,≤ 0.25
2,NPSK,≤ 0.25
3,FATK,≤ 0.25
4,YHVF,≤ 0.25
5,DKKD,≤ 0.25
6,EMDF,≤ 0.25
7,ITPQ,≤ 0.25
8,TMCE,21.2
9,ECNG,≤ 0.25
10,SLQS,≤ 0.25
11,IFYG,≤ 0.25
12,AFKK,≤ 0.25
13,QGSR,0.486
14,MSQF,≤ 0.25
15,DNAH,≤ 0.25
16,NWNF,≤ 0.25
17,TINR,15.4
18,VNIE,≤ 0.25
19,QTLF,≤ 0.25
20,HWRS,≤ 0.25
21,KIST,≤ 0.25
22,ETWI,≤ 0.25
23,LYTQ,≤ 0.25
24,HASW,≤ 0.25

row,Variant,enrichment ratio
1,EQIC,≤ 0.25
2,DRFA,≤ 0.25
3,EILQ,≤ 0.25
4,MVNP,≤ 0.25
5,IHIM,≤ 0.25
6,MGMK,≤ 0.25
7,GGLT,7.43
8,WHPG,≤ 0.25
9,FLDF,≤ 0.25
10,RSCT,≤ 0.25
11,PWRD,≤ 0.25
12,GNFQ,≤ 0.25
13,VNPG,≤ 0.25
14,QLNW,≤ 0.25
15,NCHD,≤ 0.25
16,NNWP,≤ 0.25
17,DCRV,≤ 0.25
18,DYND,≤ 0.25
19,GFMF,≤ 0.25
20,PAGW,≤ 0.25
21,YQYA,≤ 0.25
22,QVWF,≤ 0.25
23,KSCF,≤ 0.25
24,FQQL,≤ 0.25

row,Variant,enrichment ratio
1,MNGH,≤ 0.25
2,EEYT,≤ 0.25
3,TEFL,8.81
4,MPRN,≤ 0.25
5,LVQR,≤ 0.25
6,RRFR,≤ 0.25
7,RFAN,≤ 0.25
8,SGFA,≤ 0.25
9,PIIQ,≤ 0.25
10,WRAR,≤ 0.25
11,EIDG,≤ 0.25
12,PCTT,≤ 0.25
13,WNWT,≤ 0.25
14,HNLY,≤ 0.25
15,VAVH,≤ 0.25
16,NWQA,≤ 0.25
17,LNLC,≤ 0.25
18,GVVA,≤ 0.25
